# Assay results reported in PubChem BioAssay AID624418 (National Center for Advancing Translational Sciences (NCATS), 2012).
# About 530 (0.13%) of roughly 410,000 compounds were called active. The inconclusive results got no clear call from the source; some entries with a clear call stand among them for comparison. Calls follow the shape of the dose curve; as a rule, active = well fitted inhibition curve with a large enough effect; inconclusive = small, poorly fitted or top-dose-only effect, or another doubt; inactive = no such curve, though single readings can be large or run the other way. Potencies beside an inconclusive call are fits to weak or partial responses and may not hold up.
# Test: qHTS of GLP-1 Receptor Inverse Agonists: Cytotox Screen
# Conditions: HEK293 cAMP-luciferase reporter cells, luminescence, 24 h; activity change, negative = inhibition: at 38.3 µM (top of the series) unless noted
# In short: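 Luminescence readout: signal drop marks cytotoxicity. Plated cells grew 12 h at 37 °C, 5% CO2, received 23 nL compound for 24 h, then got luciferase reagent, read after 12 min at RT.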
# % is scaled to controls: 0 for no effect and ±100 for the full control effect; potency is read from the fitted curve at half-maximal effect.
Structure (SMILES),Potency,"activity change, negative = inhibition"
CCOC(=O)[C@H]1[C@H]2COc3ccc(Cl)cc3[C@@H]2N2C(=O)c3cc(Cl)ccc3NC(=O)[C@@]12C,"inconclusive: 2.51 µM [inhibitor, full curve, poor fit]",
COC(=O)C1=CN(c2cccc(C)c2)C=C(C(=O)OC)C1c1cc(OC)c(O)c([N+](=O)[O-])c1,"inconclusive: 10 µM [inhibitor, single point]",
CCOc1ccc(N(CC(=O)Nc2ccc(OC)cc2)S(=O)(=O)c2c(C)[nH]c(=O)[nH]c2=O)cc1,inactive,
N#Cc1ccccc1Cn1cc(C#N)c2ccccc21,inactive,
CCOc1ccc(N(CCCCO)C(=S)NC(=O)c2ccc(C)c(Br)c2)cc1,"inconclusive: 11.2 µM [inhibitor, single point]",
COc1ccc(/C=N\NC(=O)c2ccccc2F)cc1COc1ccc(F)cc1F,"inconclusive: 1.12 µM [inhibitor, full curve, poor fit]",
CCN(CC)S(=O)(=O)c1ccc(-c2nnc(SCC(=O)Nc3nc(C)cs3)o2)cc1,inactive,
S=C1SC2(CCCCCC2)NC2=C1CCCCC2,"inconclusive: 11.2 µM [inhibitor, single point]",
C[n+]1ccc(/C=C/c2ccccc2O)c2ccccc21,,inactive: 7.97% [at 7.66 µM]
S=C(NCCc1ccc(Cl)cc1)NC1CCCCC1,"inconclusive: 10 µM [inhibitor, single point]",
COc1ccc(C(C)=O)cc1Cn1nc(C)c([N+](=O)[O-])c1C,inactive,
S=C1SCN(Cc2ccccn2)CN1Cc1ccco1,"inconclusive: 31.6 µM [inhibitor, single point]",
CC1=Nc2ccc3ccccc3c2C1(C)C,inactive,
CNC(=S)NCCC(c1ccccc1)c1ccccc1,"inconclusive: 28.2 µM [inhibitor, single point]",
O=C(NCCc1ccccc1Cl)c1cc(COc2ccc(F)cc2F)on1,"inconclusive: 28.2 µM [inhibitor, single point]",
CNC(=O)OCc1nc(SSC(C)(C)C)n(C)c1COC(=O)NC,"inconclusive: 6.31 µM [inhibitor, partial curve, poor fit]",
COC(=O)c1ccc2c(CCO)c[nH]c2c1,"inconclusive: 1.41 µM [inhibitor, full curve, poor fit]",
CN(C)c1ccc(C=c2c3cc([N+](=O)[O-])ccc3n3c2cc(-c2ccccc2)[n+]3C)cc1,"inconclusive: 10 µM [inhibitor, partial curve, poor fit]",
S=C(Nc1ccccc1)N1CCN(c2ccc(N3CCOCC3)nn2)CC1,"inconclusive: 28.2 µM [inhibitor, single point]",
CC(C)CCCN1CCN=C1N(C)C,"inconclusive: 0.501 µM [inhibitor, full curve, poor fit]",
CCOc1cccc(C(=O)Nc2ccc(N3CCN(S(C)(=O)=O)CC3)cc2)c1,inactive,
O=c1c2ccc(Cl)cc2[nH]c(=S)n1CCCN1CCOCC1,"inconclusive: 28.2 µM [inhibitor, single point]",
CC1=CC(C)(C)NC(=S)N1c1cccc(Cl)c1,"inconclusive: 14.1 µM [inhibitor, partial curve, poor fit]",

Structure (SMILES),Potency,"activity change, negative = inhibition"
CN1C(=O)c2cccc3c(Br)ccc(c23)C1=O,inactive,
CN(C(=O)c1ccc(NC(=O)Cc2ccc(NC(=O)C3CCCN(C(=O)CCc4ccccc4)C3)cc2)cc1)C1CC1 (centres undefined),inactive,
COc1cccc(CN2CCc3nc(N4CCN(c5ncccn5)CC4)ncc3C2)c1,inactive,
Cn1c(N)c(C(=O)N/N=C/c2ccccc2)sc1=S,"inconclusive: 12.6 µM [inhibitor, single point]",
COc1cccc(-c2ccc(NC(=O)C3CCCN(Cc4cccc(C)n4)C3)cc2)c1 (centres undefined),"inconclusive: 31.6 µM [inhibitor, single point]",
COc1cc(C(=O)N/N=C(\C)Cn2nc([N+](=O)[O-])cc2C)ccc1O,inactive,
CC1=NN(C(N)=S)C(=O)C1N=Nc1ccc(Cl)cc1Cl (centres undefined),"inconclusive: 0.562 µM [inhibitor, full curve, poor fit]",
CCOC(=O)c1[nH]c2ccc(C)cc2c1NC(=O)CN1CCCCC1,inactive,
S=c1[nH]nc(C2CCCCC2)n1Cc1ccccc1,"inconclusive: 22.4 µM [inhibitor, single point]",
O=C1CC(c2ccccc2)=C(c2ccccc2)C1c1ccccc1 (centres undefined),inactive,
CCOc1cc(/C=N/Nc2nc(=O)[nH]nc2C)ccc1O,"inconclusive: 10 µM [inhibitor, partial curve, poor fit]",
O=C(N/N=C/c1ccc([N+](=O)[O-])o1)c1ccc2c(c1)OCO2,"inconclusive: 0.501 µM [inhibitor, full curve, poor fit]",
Nc1[nH]c(C(=O)c2ccccc2)c(-c2ccccc2C(F)(F)F)c1C(=O)NCCc1c[nH]c2ccccc12,"inconclusive: 15.8 µM [inhibitor, single point]",
Cc1cccn2c(=O)c3cc(C(=O)NCc4ccccc4)c(=N)n(CCOCCO)c3nc12,inactive,
COCCn1c(=O)[nH]c2cc(C(=O)NCCCN3CCN(c4ccc(F)cc4)CC3)ccc2c1=O,inactive,
CC(C)CC(=O)NC(=S)Nc1ccccc1C(F)(F)F,"inconclusive: 28.2 µM [inhibitor, single point]",
CC1Sc2ccc(C#N)cc2N(Cc2cccc(C(F)(F)F)c2)C1=O (centres undefined),inactive,
COc1cc2[nH]c(=S)n(CCN3CCCCC3C)c(=O)c2cc1OC (centres undefined),"inconclusive: 12.6 µM [inhibitor, partial curve]",
CCCn1cnc2c(Sc3c([N+](=O)[O-])ncn3C)nc(N)nc21,inactive,
COCOCCn1cc(CN2CCS(=O)(=O)N(Cc3ccc(-c4ccc(Cl)c(Cl)c4)cc3)C(C(C)C)C2=O)nn1 (centres undefined),"inconclusive: 14.1 µM [inhibitor, single point]",
CC(C)(C)CC(C)(C)NCC(O)COCCOc1ccc(Br)cc1 (centres undefined),"inconclusive: 11.2 µM [inhibitor, partial curve, poor fit]",
CN(C(=O)COc1ncnc2ccccc12)C1CCCCC1,inactive,
COC(=O)C1=C(C)N(c2ccccc2)C(=S)NC1c1ccccc1C(F)(F)F (centres undefined),"inconclusive: 22.4 µM [inhibitor, single point]",

Structure (SMILES),Potency,"activity change, negative = inhibition"
CCOc1ccc(-c2[nH]ncc2Oc2cccc(OC)c2)c(O)c1,inactive,
COc1ccc(-c2ccc(CCC(=O)O)n2-c2ccccc2OC)cc1,"inconclusive: 7.94 µM [inhibitor, partial curve, poor fit]",
O=C(Oc1c(CN2CCOCC2)cc(Cl)c2cccnc12)c1ccccc1F,"inconclusive: 0.501 µM [inhibitor, full curve, poor fit]",
CCc1ccc(CNC(=O)CN2C(=O)c3cccnc3Oc3ccc(C)cc32)cc1,inactive,
C(=C\c1nc(N2CCCCCC2)c2ccccc2n1)/c1ccccc1,"inconclusive: 28.2 µM [inhibitor, single point]",
Cc1cc(C)c2sc(NNC(=O)c3ccc(S(=O)(=O)N4CCc5ccccc5C4)cc3)nc2c1,"inconclusive: 10 µM [inhibitor, partial curve, poor fit]",
CC(C)c1ccc(OCC(O)CNC(C)c2ccccc2)cc1 (centres undefined),,inconclusive: -112% [inhibitor]
CCOC(=O)N/N=C\c1ccc(OC/C=C/c2ccccc2)cc1,inactive,
Cc1ccc(C(=O)NNc2cc(N3CCCC3)nc(N3CCCC3)n2)cc1,inactive,
O=C(Nc1cccc(S(=O)(=O)N2CCCCC2)c1)Nc1ccc(Cl)cc1Cl,"inconclusive: 22.4 µM [inhibitor, single point]",
Cc1cccc(OCC(=O)Nc2ccc3c(c2)nc(CCN2CCCCC2)n3C)c1,"inconclusive: 12.6 µM [inhibitor, single point]",
Nc1ccc2ncccc2c1,inactive,
CC1CCc2c(sc3nc(C(C)(C)C)nc(N4CCN(C(=O)CCl)CC4)c23)C1 (centres undefined),"inconclusive: 28.2 µM [inhibitor, single point]",
COc1ccc2sc(N(CCCN(C)C)C(=O)c3ccc(S(=O)(=O)N(C)C4CCCCC4)cc3)nc2c1,"inconclusive: 28.2 µM [inhibitor, single point]",
CCOC(=O)c1c(NC(C)=O)c2c3c(sc2n1Cc1nc(-c2ccccc2C)oc1C)CCCC3,inactive,
O=C(Nc1nc2ccc(F)cc2s1)c1nc(S(=O)(=O)Cc2ccccc2)ncc1Cl,"inconclusive: 20 µM [inhibitor, single point]",
CC1(NC(=O)NCCCCCCNC(=O)NC2(C)CCS(=O)(=O)C2)CCS(=O)(=O)C1 (centres undefined),"inconclusive: 11.2 µM [inhibitor, single point]",
Cc1ccnc(NC(=O)c2cccc(NC(=O)Cc3ccccc3)c2)c1,"inconclusive: 11.2 µM [inhibitor, single point]",
COc1ccc(/C=C2\CCCC3C2=NN(C(=O)c2ccco2)C3c2ccc(OC)c(OC)c2)cc1OC (centres undefined),"inconclusive: 10 µM [inhibitor, partial curve, poor fit]",
CCOC(=O)N1CCC(NC(=O)CCc2c(C)nc3c(c(C)nn3-c3ccccc3)c2C)CC1,"inconclusive: 11.2 µM [inhibitor, single point]",
COc1ccc(NC(=O)CCC(=O)c2cccs2)cc1S(=O)(=O)Nc1ccc(Cl)cc1,"inconclusive: 12.6 µM [inhibitor, partial curve, poor fit]",
CC1CCCC(NC(=O)COC(=O)c2ccc([N+](=O)[O-])o2)C1C (centres undefined),inactive,
COc1ccc(CNC(=O)c2cccc(-n3cnc4cccnc43)c2C)cc1,inactive,
